Measurements as given in publication PMC4027165, “SAXS analysis of the tRNA-modifying enzyme complex MnmE/MnmG reveals a novel interaction mode and GTP-induced oligomerization” (Nucleic Acids Research, 2014).
Changes are numbered by the printed parent chain. Names may count otherwise. Results are given in words; binding and its absence hold for the method and conditions named. Some binding calls cover weakened binding; strength is not graded here.

T1: MnmG from Escherichia coli, wild type (Escherichia coli, UniProt P0A6U3 1-629)
T1 construct: tRNA uridine 5-carboxymethylaminomethyl modification enzyme MnmG (formerly GidA), Escherichia coli; open reading frame cloned in a pET14b vector; Homodimer of 70-kDa subunits; also called GidA; MnmG wt
T1 sequence (looked up): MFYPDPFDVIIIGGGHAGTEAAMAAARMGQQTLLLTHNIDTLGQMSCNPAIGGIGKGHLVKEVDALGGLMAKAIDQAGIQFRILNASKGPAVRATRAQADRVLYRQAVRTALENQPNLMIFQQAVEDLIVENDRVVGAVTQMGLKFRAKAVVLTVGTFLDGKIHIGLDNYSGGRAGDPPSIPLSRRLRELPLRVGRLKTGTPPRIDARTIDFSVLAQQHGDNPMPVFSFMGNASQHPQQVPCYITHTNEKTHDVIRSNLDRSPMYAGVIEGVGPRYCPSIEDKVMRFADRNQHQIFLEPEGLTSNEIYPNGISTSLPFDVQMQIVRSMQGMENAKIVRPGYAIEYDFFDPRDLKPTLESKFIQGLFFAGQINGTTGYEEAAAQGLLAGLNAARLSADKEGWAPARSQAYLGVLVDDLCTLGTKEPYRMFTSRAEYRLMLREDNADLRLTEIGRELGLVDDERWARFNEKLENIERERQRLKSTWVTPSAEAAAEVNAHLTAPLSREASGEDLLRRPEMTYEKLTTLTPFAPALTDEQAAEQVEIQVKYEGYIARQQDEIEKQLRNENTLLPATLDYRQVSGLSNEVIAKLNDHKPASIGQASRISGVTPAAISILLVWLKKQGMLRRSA

B1: MnmE from Escherichia coli, wild type (enzyme, UniProt P25522 1-454, looked up)
chain: MSDNDTIVAQATPPGRGGVGILRISGFKAREVAETVLGKLPKPRYADYLPFKDADGSVLDQGIALWFPGPNSFTGEDVLELQGHGGPVILDLLLKRILTIPGLRIARPGEFSERAFLNDKLDLAQAEAIADLIDASSEQAARSALNSLQGAFSARVNHLVEALTHLRIYVEAAIDFPDEEIDFLSDGKIEAQLNDVIADLDAVRAEARQGSLLREGMKVVIAGRPNAGKSSLLNALAGREAAIVTDIAGTTRDVLREHIHIDGMPLHIIDTAGLREASDEVERIGIERAWQEIEQADRVLFMVDGTTTDAVDPAEIWPEFIARLPAKLPITVVRNKADITGETLGMSEVNGHALIRLSARTGEGVDVLRNHLKQSMGFDTNMEGGFLARRRHLQALEQAAEHLQQGKAQLLGAWAGELLAEELRLAQQNLSEITGEFTSDDLLGRIFSSFCIGK
notes: tRNA modification GTPase MnmE (formerly TrmE), Escherichia coli; open reading frame cloned in a pET20 vector; Homodimer of about 50-kDa subunits; Used nucleotide-free, with GDP-AlFx or with GppNHp depending on the experiment; also called TrmE; MnmE wt
B2: MnmE (N118A, K120A and D122A) (enzyme, UniProt P25522 1-454)
chain: B1 chain with N118A, K120A, D122A

Tests used:
[1] = target: T1, MnmG from Escherichia coli, wild type; assay: SEC; gel filtration of the MnmEG complex (alpha2beta2 and alpha4beta2 forms) with Nb_MnmG_1 added in excess; both purified
[2] = target: T1, MnmG from Escherichia coli, wild type; assay: stopped-flow SAXS; MnmE and MnmG rapidly mixed at high protein concentration without GDP-AlFx; data not shown; both purified
[3] = target: T1, MnmG from Escherichia coli, wild type; assay: stopped-flow SAXS; 32.5 uM MnmE and 32.5 uM MnmG rapidly mixed 1:1 with GDP-AlFx; 50-ms exposures at different times after mixing; both purified
[4] = target: T1, MnmG from Escherichia coli, wild type; assay: SEC; analytical gel filtration (KW803, Shodex); MnmE incubated with 1 mM GDP-AlFx for 30 min, then mixed with MnmG (2:1 or 1:1); down to 5 uM protein; both purified
[5] = target: T1, MnmG from Escherichia coli, wild type; assay: SEC; analytical gel filtration (KW803, Shodex), 1:1 mixture of MnmE and MnmG without nucleotides, 25 ul of 100 uM injected; 50 mM Hepes pH 7.5, 150 mM KCl, 5 mM MgCl2, 5 mM BME; both purified
[6] = target: MnmG (Y551A, R554A, E558A and R564A) (Escherichia coli) (UniProt P0A6U3); assay: ITC; 278 K; 20 mM Hepes pH 7.5, 150 mM NaCl, 5 mM MgCl2, 2 mM BME, 1 mM FAD; variants: 700 uM MnmE in the syringe into 50 uM MnmG in the cell and vice versa; one site model; apparent; both purified
[7] = target: T1, MnmG from Escherichia coli, wild type; assay: as above

| Binder | binding [1] | binding [2] | binding [3] | binding [4] | binding [5] | binding [6] | binding [7] |
| --- | --- | --- | --- | --- | --- | --- | --- |
| B1 | binds | binds | binds | binds | binds weakly | no binding (tested: 700 uM in the syringe, 50 uM in the cell) |  |
| B2 |  |  |  |  |  |  | no binding (tested: 700 uM in the syringe, 50 uM in the cell) |
